Assay results: the supplement of paper PMC8728848
The other results are listed elsewhere or left out.

Legend:
Test in all cases: glycan array binding signal (z-score within array); higher = stronger binding
Conditions in all cases: glycan notation: IUPAC condensed, linker removed
[1] = target: Neu5Ac(a2-6)Gal(b1-4)GlcNAc(b1-2)Man(a1-3)[Neu5Ac(a2-3)Gal(b1-4)GlcNAc(b1-2)Man(a1-6)]Man(b1-4)GlcNAc(b1-4)GlcNAc
In short: (§1)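 The Consortium for Functional Glycomics database supplied 3228 glycan arrays, of which those lacking an available protein sequence were dropped. The binding signal, a within-array Z-score, was averaged across arrays of the same protein sequence and across linkers. Negative scores can be read as non-binding.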

[2] = target: Neu5Ac(a2-6)Gal(b1-4)GlcNAc(b1-2)Man(a1-3)[Neu5Ac(a2-6)Gal(b1-4)GlcNAc(b1-2)Man(a1-6)]Man(b1-4)GlcNAc(b1-4)GlcNAc
In short: as §1

[3] = target: Neu5Ac(a2-6)Gal(b1-4)GlcNAc(b1-2)Man(a1-3)[Neu5Ac(a2-6)Gal(b1-4)GlcNAc(b1-2)Man(a1-6)]Man(b1-4)GlcNAc(b1-4)[Fuc(a1-6)]GlcNAc
In short: as §1

[4] = target: Neu5Ac(a2-6)Gal(b1-4)GlcNAc(b1-2)Man(a1-6)Man(b1-4)GlcNAc(b1-4)GlcNAc
In short: as §1

[5] = target: Neu5Ac(a2-6)Gal(b1-4)GlcNAc(b1-2)Man(a1-6)[Gal(b1-4)GlcNAc(b1-2)Man(a1-3)]Man(b1-4)GlcNAc(b1-4)GlcNAc
In short: as §1

[6] = target: Neu5Ac(a2-6)Gal(b1-4)GlcNAc(b1-2)Man(a1-6)[GlcNAc(b1-2)Man(a1-3)]Man(b1-4)GlcNAc(b1-4)GlcNAc
In short: as §1

[7] = target: Neu5Ac(a2-6)Gal(b1-4)GlcNAc(b1-2)Man(a1-6)[Man(a1-3)]Man(b1-4)GlcNAc(b1-4)GlcNAc
In short: as §1

[8] = target: Neu5Ac(a2-6)Gal(b1-4)GlcNAc(b1-2)[Neu5Ac(a2-6)Gal(b1-4)GlcNAc(b1-4)]Man(a1-3)[GlcNAc(b1-4)][Neu5Ac(a2-6)Gal(b1-4)GlcNAc(b1-2)[Neu5Ac(a2-6)Gal(b1-4)GlcNAc(b1-6)]Man(a1-6)]Man(b1-4)GlcNAc(b1-4)GlcNAc
In short: as §1

[9] = target: Neu5Ac(a2-6)Gal(b1-4)GlcNAc(b1-2)[Neu5Ac(a2-6)Gal(b1-4)GlcNAc(b1-4)]Man(a1-3)[GlcNAc(b1-4)][Neu5Ac(a2-6)Gal(b1-4)GlcNAc(b1-4)Man(a1-6)]Man(b1-4)GlcNAc(b1-4)GlcNAc
In short: as §1

[10] = target: Neu5Ac(a2-6)Gal(b1-4)GlcNAc(b1-2)[Neu5Ac(a2-6)Gal(b1-4)GlcNAc(b1-6)]Man(a1-6)[Neu5Ac(a2-6)Gal(b1-4)GlcNAc(b1-2)Man(a1-3)][GlcNAc(b1-4)]Man(b1-4)GlcNAc(b1-4)GlcNAc
In short: as §1

[11] = target: Neu5Ac(a2-6)Gal(b1-4)GlcNAc(b1-3)Gal(b1-3)GlcNAc
In short: as §1

[12] = target: Neu5Ac(a2-6)Gal(b1-4)GlcNAc(b1-3)Gal(b1-4)GlcNAc
In short: as §1

[13] = target: Neu5Ac(a2-6)Gal(b1-4)GlcNAc(b1-3)Gal(b1-4)GlcNAc(b1-2)Man(a1-3)[Neu5Ac(a2-6)Gal(b1-4)GlcNAc(b1-3)Gal(b1-4)GlcNAc(b1-2)Man(a1-6)]GalNAc
In short: as §1

[14] = target: Neu5Ac(a2-6)Gal(b1-4)GlcNAc(b1-3)Gal(b1-4)GlcNAc(b1-3)Gal(b1-4)GlcNAc
In short: as §1

[15] = target: Neu5Ac(a2-6)Gal(b1-4)GlcNAc(b1-3)Gal(b1-4)GlcNAc(b1-3)Gal(b1-4)GlcNAc(b1-2)Man(a1-3)[Neu5Ac(a2-6)Gal(b1-4)GlcNAc(b1-3)Gal(b1-4)GlcNAc(b1-3)Gal(b1-4)GlcNAc(b1-2)Man(a1-6)]GalNAc
In short: as §1

[16] = target: Neu5Ac(a2-6)Gal(b1-4)GlcNAc(b1-3)Gal(b1-4)GlcNAc(b1-3)GalNAc
In short: as §1

[17] = target: Neu5Ac(a2-6)Gal(b1-4)GlcNAc(b1-3)Gal(b1-4)GlcNAc(b1-3)[Neu5Ac(a2-6)Gal(b1-4)GlcNAc(b1-3)Gal(b1-4)GlcNAc(b1-6)]GalNAc
In short: as §1

[18] = target: Neu5Ac(a2-6)Gal(b1-4)GlcNAc(b1-3)Gal(b1-4)GlcNAc(b1-6)[Gal(b1-3)]GalNAc
In short: as §1

[19] = target: Neu5Ac(a2-6)Gal(b1-4)GlcNAc(b1-3)Gal(b1-4)[Fuc(a1-3)]GlcNAc(b1-3)Gal(b1-4)[Fuc(a1-3)]GlcNAc
In short: as §1

[20] = target: Neu5Ac(a2-6)Gal(b1-4)GlcNAc(b1-3)GalNAc
In short: as §1

[21] = target: Neu5Ac(a2-6)Gal(b1-4)GlcNAc(b1-3)[Neu5Ac(a2-6)Gal(b1-4)GlcNAc(b1-6)]GalNAc
In short: as §1

[22] = target: Neu5Ac(a2-6)Gal(b1-4)GlcNAc(b1-6)GalNAc
In short: as §1

[23] = target: Neu5Ac(a2-6)Gal(b1-4)GlcNAc(b1-6)[Gal(b1-3)GlcNAc(b1-3)]Gal(b1-4)Glc
In short: as §1

[24] = target: Neu5Ac(a2-6)Gal(b1-4)GlcNAc(b1-6)[Gal(b1-3)]GalNAc
In short: as §1

[25] = target: Neu5Ac(a2-6)Gal(b1-4)GlcNAc6S
In short: as §1

Neu5Ac(a2-6)GalNAc = target: Neu5Ac(a2-6)GalNAc
In short: as §1

[26] = target: Neu5Ac(a2-6)GalNAc(b1-4)GlcNAc
In short: as §1

[27] = target: Neu5Ac(a2-6)GalNAc(b1-4)GlcNAc6S
In short: as §1

[28] = target: Neu5Ac(a2-6)GlcNAc(b1-4)GlcNAc
In short: as §1

[29] = target: Neu5Ac(a2-6)GlcNAc(b1-4)GlcNAc(b1-4)GlcNAc
In short: as §1

B1: PX15618B-bfa-464-25-464 (Bacteroides fragilis) (protein)
chain: DQEPPLYVNENDIFTSPTRIEATLNGLYAAIKNTGTKSLMGGKSYLVFDNRGDDVINISNNLVTLFNTYNMNVGITDAENADTWTYAYLAINKVNTFLQSLEGAREVAGENYDRYVQEAKFVRALAYYYLNNLYPTPYSVNPDAKSVPLRLTAEAGTENNNMPRSTVKQIYEHILSDLENISALDTEVNTYTGVTHATQAAANMLKMRVYMAMNEWDKAITAGELVTGYSLPEDVTLIYKAPYFSQESIFSLPMADTNIPNTQQSLAEYYYDGKIMLIDTKSGIMSKPDYSLATDKRIIAFKGEKDLLMKFTDAKTKLQWVPIFRYAETLLDLAECYANKAGGEATAKSLLKQVRGRSVDAATDPLNIDNLSGDALKEAIYNEKRLEFIGEGIRGIDIMRRGEHFIKVGENETINVGPSDEKYTWPIPQVELLLNKDINK
glycan array binding signal (z-score) [1]: 0.044
glycan array binding signal (z-score) [2]: 0.204
glycan array binding signal (z-score) [3]: -0.113
glycan array binding signal (z-score) [4]: -0.555
glycan array binding signal (z-score) [5]: -0.115
glycan array binding signal (z-score) [6]: -0.065
glycan array binding signal (z-score) [7]: -0.375
glycan array binding signal (z-score) [8]: -0.588
glycan array binding signal (z-score) [9]: -0.14
glycan array binding signal (z-score) [10]: -0.136
glycan array binding signal (z-score) [11]: -0.118
glycan array binding signal (z-score) [12]: -0.341
glycan array binding signal (z-score) [13]: 0.61
glycan array binding signal (z-score) [14]: 0.082
glycan array binding signal (z-score) [15]: -0.364
glycan array binding signal (z-score) [16]: -0.096
glycan array binding signal (z-score) [17]: 0.339
glycan array binding signal (z-score) [18]: -0.921
glycan array binding signal (z-score) [19]: -0.121
glycan array binding signal (z-score) [20]: 0.014
glycan array binding signal (z-score) [21]: -0.056
glycan array binding signal (z-score) [22]: -0.484
glycan array binding signal (z-score) [23]: -0.554
glycan array binding signal (z-score) [24]: 1.16
glycan array binding signal (z-score) [25]: -0.437
glycan array binding signal (z-score) (Neu5Ac(a2-6)GalNAc): -0.298
glycan array binding signal (z-score) [26]: -0.248
glycan array binding signal (z-score) [27]: -0.779
glycan array binding signal (z-score) [28]: -0.354
glycan array binding signal (z-score) [29]: -0.344
